From the RNAGym collection of RNA variant scans (doi:10.7554/elife.90254)
The source gives no read counts; variants with many changes may rest on few reads.

B1: OR4K15 (parent)
chain: GUUAACGGUCAUAGGCCAUGGAAACUAGGAGCACCAUUUCGCUGCCAGUGAAGAAAUGAACAAAGAAAAUCUGGGCCAGGCAGGCAUCAAAAGAAAUAGUCUUGCGCUCAACCAGAAAGUCUGUAAUCAUUUUAAGGGUA

Variants of: B1
Assay: self-cleavage, relative activity (ratio to wild type); higher = more cleavage; in vitro, sequencing; the parent is a self-cleaving ribozyme

Variant | self-cleavage
U9C G15U U70C | 0.2
U9C G14A A69G G104A A114G | 0
A11C U37C A54G | 1.72
A11C A30G A59G A110G | 0.09
U9C U37C A51G A55G A82U | 0.2
U9C U19A A52G A78G A110G A116G | 0.02
U9C U38C A59G | 1.15
U9C U37C A69G U70C U124A U130G | 0.1
A11G A18G A64C U87C A98G A125G U127C U130C | 0.25
U9C U38C A47U A89C A125U | 0.27
C10U A24C A69G A116G | 0.78
U9G A24G A33G C105U | 0.06
U9C U43A A96U C105U | 0.12
U9C U19A U102A | 0.56
C10U A55G A60G A63G A96G | 1.44
U9C U38A U39C A135U | 1.99
A11C A64G A82G A95G U103C U122C | 2.5
C10U A22G A47G U131C | 0.31
U9C U26G A60U U100C | 0.98
U9C U38A U103C U131A | 1.02
U9G G74U G106A | 0.05
U9G A33G C46A A66G U70G | 0.48
A11G A22U U38C | 0.29
A11G A13G A69C A90C | 1.06

Variant | self-cleavage
C10U A11C A30G A67G U103C U139C | 1.24
U9C G28C A94G A117U | 1.2
C10U A13G A86G A111C | 0.06
U9C U39C A114U U122A U124A | 0.04
U9C C35U A68G U131C U139A | 0.95
U9C G31A A36U U102C | 1.65
A11G A23G U39C A117G A129C | 0.56
C10A A51G U87A | 0.51
A11G A22G A140G | 0.41
A11C A68U U72C U97C U100C U132C | 0.7
U9C U38A U43C A47U A116G | 0.2
U9C U19A A52U A66G A67U A116U C128A | 0.3
C10U A33G U39C A54G A56G U57G A59U | 0.57
U9C U39C A56G C105U A110G | 0.08
A11G A18G U100C | 0.78
C10U A52G U72A U100C A118C U127C | 0.05
U9C U38A A89G A129G | 1.2
A11G A23U A60G A89G A118G | 0.71
C10U A56G A67G A69G A116G | 0.39
U9C U19A A30G U120G A125G U130G | 0.88
U9C U39C A47U A86U U87C A96G | 0.68
A11C A78G U131C | 0.13
A11C A68G U102A | 0.76
C10U A68G A78U A92G A116G | 0.08

Variant | self-cleavage
U9C G84A A92G | 1.66
U9C U103C A118U | 0.47
U9C U38C A114G A129G U133C | 0.77
U9C U38C U72C | 0.43
U9C U37C U39G U57C U108A | 0.03
U9G A18U C40U U43G A69G G119A | 1.36
U9C G74U U102A A134G | 0.09
U9C U37C A68G A118G | 1.14
A11G A18U A33G | 1.13
U9C U97A U120A | 2.14
U9C U37C U43C A78G A92U A96G A110G | 0.07
U9C U49C U130G | 1.18
A11C U37C A116G | 0.84
U9C G28U A47G A126C U133C | 0.44
U9C U26C A30G G106U | 0
U9C U43C A118G | 1.47
U9C U37C A63G A64G | 0.85
U9C U12C A23C U139C | 0.87
C10U C17U A52G | 0.85
C10U U12A U97C A98G | 0.69
U9C U19C A24G A60G A94G | 1.02
U9C U12A A59G | 2.21
A11C A47G A91G | 1.09
U9C G44A U49C A64G A116C A129G | 0.04

Variant | self-cleavage
U9C G28A U39C C71A | 0.68
U9G A64G U102C U131C | 1.42
C10U A64C C128U | 0.54
C10A U19C G115A | 0.04
A11G A23U U26A U103C U108C A118G | 0.02
A11C A22G A78G | 0.4
U9C C85U U100C | 1.72
A11C A23G A68C | 1.57
U9C U43A A55G A59G U122C | 0.91
C10U A18U A54G | 1.18
C10A A23U A89G | 1.7
A11G A23G A59G | 0.68
A11C A60G A78U U100A U132C | 0.04
U9C G31A U100A | 1.62
A11G A18G A54G A110G | 0.07
U9G U49C U122C | 0.32
A11G A23U A55G | 0.98
U9C U57G A98G A116G | 0.47
U9C U12A U39C A59G A86G U120A U130C | 0.57
A11G A22G A62C A63G A66G | 0.48
U9C C25U A82U U132A | 0.27
U9G A30U U100A C101A | 0.1
A11C A55U A67G A89G U120C A126G | 0.23
C10A A27C A56G A78G | 0.3

Variant | self-cleavage
A11G A23U A63G A67G U70G U103C U108C A118G | 0.02
U9G A59G A117G | 1.45
A11C A114G A117G | 0.19
U9C U97A A114G | 0.33
U9C U38C G99U U102C U127A | 2.98
U9G A86G A118G | 0.52
A11G A23C A69G A96G | 0.51
U9C U108C U130C | 0.01
A11G A23G U37C | 0.61
U9C U37C A116G | 1.55
A11G A22G A55G U102C A116U | 0.74
U9C U87A U130C | 2.34
A11G A23G A86G A91G U102C | 0.81
A11C A30G A62G A66G | 1.4
U9G U70C U87C U120C | 0.2
U9G A33G A51U A69C U124A | 0.98
A11G A22G A56G A86G A134G | 1.09
U9C U19C A54G A62G | 1.6
A11C A23G A52G A63U U97C | 0.45
U9C U38C A118C | 1.4
U9G U39A A89G U108G | 0.04
A11C A33U A54U | 1.39
U9C U39C A56C | 1.59
A11G A22G U38A U100C | 0.88

Variant | self-cleavage
U9C U49C U57C A135G | 0.46
U9C U72C A91G U139A | 0.31
A11G A18U A51G A55U U131C | 0.37
C10A A51G A110G | 0.14
C10U U43C A54U A60G U131C | 0.67
C10U U12C U122C | 0.92
A11C A60G A68G A110G | 0.33
A11G A13G A90G U103C U133A | 0.36
A11G A22G A89U | 2.19
U9C U39A U103C | 0.52
U9C U70C A90G U102C | 1.41
C10U A33G U131A A140U | 0.29
U9C U39C A92G | 1.82
U9C U38C A52G | 0.62
U9G A51G A69G | 1.04
C10G A33G A55C | 1.31
U9C U43C A66U | 1.26
C10U A52G G65A A89G A92U A94U | 1.08
A11C A18G A91G A126U | 0.81
U9C U49C U131C | 1.8
A11G A22U U139C | 0.51
U9G A27G A59G U87C A92G U97A | 1.08
U9C G31A G79A C105G U131G | 0.02
A11C A59U A96G C109U | 0.3

Variant | self-cleavage
C10U A56G U108A U139G | 0.08
U9C U38C A89U | 2.66
A11G A22G A54G | 1.35
A11C A68C A90G G106A | 0.02
U9C U19A A68C A91G A92G A118G | 1.16
U9C U38C G44U | 1.41
A11C U26A A129U | 0.73
U9C U19C A82G A135G | 0.59
U9C U38C A129G | 1.46
U9C U38C C81U | 0.29
C10U U103A U130C | 0.34
A11G A23G C40U | 1.15
U9C C77A A90G | 0.75
U9G A36G A55G A82U A96G | 0.09
C10U A33G G73U | 0.2
C10U A89G A90G A96G U132C | 0.4
A11C U19C A64G A66G | 1.58
A11G A22G A33G A64U A117G | 0.59
U9C U57A A78G | 0.19
A11G A13G U87C U122C | 0.05
U9C U19C A51U | 0.91
A11C U19C U103C | 1.13
U9C U19G A30G A78U A91G U100G A118U | 0.33
